*1 amine or outer side, *2 acyl side, *3 side chain or, on linkers, in order; H or OH if unused. Where a SMILES comes first, the peptide text is derived from it. [ ]: non-standard residue; d: D form. The star is where a group is joined. ξ: configuration not given here. Pro(3R,4S-CMe2) = CC1(C)[C@@H]2[C@@H](C(=O)O)NC[C@@H]21; ξ(3-Amino-2-oxopentanoyl) = CCC(N[*:1])C(=O)C(=O)[*:2]; Benzoyl(2,3,4,5,6-F5) = O=C(c1c(F)c(F)c(F)c(F)c1F)*; ξLeu(ψCOCO) = CC(C)CC(N[*:1])C(=O)C(=O)[*:2]; ξPro(4,4-S(CH2)3S) = O=C(O)C1CC2(CN1)SCCCS2; Benzoyl(2-CF3) = O=C(c1ccccc1C(F)(F)F)*; Pro(4,4-Me2) = CC1(C)CN[C@H](C(=O)O)C1; X25 = O=C(O)c1c(F)c(F)c(F)c(F)c1C(=O)*; X12 = CCC[C@H](N[*:1])C(=O)C(=O)[*:2]; ξPhg(3-OMe) = COc1cccc(C(N)C(=O)O)c1; Isobutyloxycarbonyl = CC(C)COC(=O)*; Hyp = O=C(O)[C@@H]1C[C@@H](O)CN1; X2 = CCCC(N[*:1])C(=O)C(=O)[*:2]; Chg = N[CH](C(=O)O)C1CCCCC1; Phg = N[CH](C(=O)O)c1ccccc1; Tle = CC(C)(C)[C@H](N)C(=O)O; X20 = CC(C)[C@@H](C)OC(=O)*; ξChg = NC(C(=O)O)C1CCCCC1; ξPhg = NC(C(=O)O)c1ccccc1; PhAc = O=C(Cc1ccccc1)*; NHCH2CH2OMe = COCCN*; Bz = O=C(c1ccccc1)*; Bn = c1ccc(C*)cc1; tBu = CC(C)(C)*
These compounds were tested against HCV NS3/NS4A protease (strain 1a) (Hepatitis C virus genotype 1a, UniProt P27958) (assay: biochemical). Conditions: Compounds prepared by Solid Phase Synthesis, Table 3; read-out: Ki* CLASS.

| Structure (SMILES) | Ki |
| --- | --- |
| CC(C)CC(NC(=O)[C@@H]1C[C@@H](OC(C)(C)C)CN1C(=O)[C@@H](NC(=O)c1c(F)c(F)c(F)c(F)c1F)C1CCCCC1)C(=O)C(=O)NCC(=O)N[C@H](C(N)=O)c1ccccc1 (stereo partly shown) ({Benzoyl(2,3,4,5,6-F5)}-[Chg][Hyp](tBu)[ξLeu(ψCOCO)]G[Phg]-NH2) | > 1000 nM |
| CCCC(NC(=O)[C@@H]1C[C@@H](OCc2ccccc2)CN1C(=O)C(NC(=O)c1ccccc1C(F)(F)F)C1CCCCC1)C(=O)C(=O)NCC(=O)NC(C(N)=O)c1ccccc1 (stereo partly shown) ({Benzoyl(2-CF3)}-[ξChg][Hyp](Bn)[X2]G[ξPhg]-NH2) | 101 to 1000 nM |
| CCCC(NC(=O)[C@@H]1C[C@@H](OC(C)(C)C)CN1C(=O)[C@@H](NC(=O)OCC(C)C)C1CCCCC1)C(=O)C(=O)NCC(=O)NC(C(N)=O)c1cccc2c1OCO2 (stereo partly shown) | 101 to 1000 nM |
| CCCC(NC(=O)[C@@H]1C[C@@H](OC(C)(C)C)CN1C(=O)[C@@H](NC(=O)c1c(F)c(F)c(F)c(F)c1C(=O)O)C1CCCCC1)C(=O)C(=O)NCC(=O)NC(C(N)=O)c1cccc(OC)c1 (stereo partly shown) (X25-[Chg][Hyp](tBu)[X2]G[ξPhg(3-OMe)]-NH2) | 101 to 1000 nM |
| CCC(NC(=O)[C@@H]1C[C@@H](OC(C)(C)C)CN1C(=O)[C@@H](NC(=O)Cc1ccccc1)C1CCCCC1)C(=O)C(=O)NCC(=O)N[C@H](C(N)=O)c1ccccc1 (stereo partly shown) (PhAc-[Chg][Hyp](tBu)[ξ(3-Amino-2-oxopentanoyl)]G[Phg]-NH2) | 101 to 1000 nM |
| CCCC(NC(=O)[C@@H]1C[C@@H](OCc2ccccc2)CN1C(=O)C(NC(=O)c1ccccc1)C1CCCCC1)C(=O)C(=O)NCC(=O)NC(C(N)=O)c1ccccc1 (stereo partly shown) (Bz-[ξChg][Hyp](Bn)[X2]G[ξPhg]-NH2) | 101 to 1000 nM |

Same assay, conditions: HCV protease continuous assay results, Table 1; read-out: Ki* Range

| Structure (SMILES) | Ki |
| --- | --- |
| CCCC(NC(=O)C1CC2(CN1C(=O)C(NC(=O)OCC(C)C)C1CCCCC1)SCCCS2)C(=O)C(=O)NCC(=O)NC(C(=O)NCCOC)c1ccccc1 (stereo not shown) [Example 151] (Isobutyloxycarbonyl-[Chg][ξPro(4,4-S(CH2)3S)][X2]G[Phg]-NHCH2CH2OMe; configuration not given here) | 1 to 100 nM |
| CCCC(NC(=O)[C@@H]1CC2(CN1C(=O)C(OC(C)=O)C(C)(C)C)SCCCS2)C(=O)C(=O)NCC(=O)NC(C(=O)N(C)C)c1ccccc1 (stereo partly shown) [Example 290] | > 1000 nM |
| CCCCC(NC(=O)[C@@H]1C[C@@H](OC(C)(C)C)CN1C(=O)[C@@H](NC(=O)OCC(C)C)C(C)(C)C)C(=O)C(=O)NCC(=O)N[C@@H](c1ccccc1)[C@H](C)O (stereo partly shown) [Example 324] | > 1000 nM |
| C=CCNC(=O)C(=O)[C@H](CCC)NC(=O)[C@@H]1CCCN1C(=O)[C@@H](NC(=O)/C=C/c1cc(OC)c(OC)c(OC)c1)C(C)C [Example 25] | > 1000 nM |

Results, then the compound that gave them:

| Ki | Structure (SMILES) |
| --- | --- |
| > 1000 nM | C=CCCC(NC(=O)[C@@H]1[C@@H]2[C@H](CN1C(=O)[C@@H](NC(=O)OC(C)(C)C)C(C)(C)C)C2(C)C)C(=O)C(=O)NCCc1ccccc1OC (stereo partly shown) [Example 353] |
| > 1000 nM | CCCC(NC(=O)[C@@H]1CC2(CN1C(=O)C(NC(=O)OCC(C)C)C1CCCCC1)SCCCS2)C(=O)C(=O)NCC(=O)O (stereo partly shown) [Example 91] |
| 1 to 100 nM | C=CCC1CCN(C(=O)[C@@H](NC(=O)OCC(C)C)C2CCCCC2)C1C(=O)NC(CCC)C(=O)C(=O)NCC(=O)NC(C(=O)O)c1ccccc1 (stereo partly shown) [Example 164] |

Same assay, conditions: Table 4; HCV NS3/NS4A protease, spectrophotometric assay, 30° C., pH 6.5; read-out: Ki* Range

| Structure (SMILES) | Ki |
| --- | --- |
| CCC[C@H](NC(=O)[C@@H]1CC(C)(C)CN1C(=O)[C@@H](NC(=O)OCC(C)C)[C@@H](C)CC)C(=O)C(=O)NCC(=O)N[C@H](C(=O)N(C)C)c1ccccc1 (Isobutyloxycarbonyl-I[Pro(4,4-Me2)][X12]G[Phg]-NMe2) | 1 to 100 nM |
| CCCC(NC(=O)[C@@H]1[C@@H]2[C@H](CN1C(=O)[C@@H](NC(=O)OCC(C)C)C1CCCCC1)C2(C)C)C(=O)C(=O)NCC(=O)NC(C(=O)N(C)C)c1ccccc1 (stereo partly drawn) (Isobutyloxycarbonyl-[Chg][Pro(3R,4S-CMe2)][X2]G[ξPhg]-NMe2) | 1 to 100 nM |
| CCCC(NC(=O)[C@@H]1CC(C)(C)CN1C(=O)[C@@H](NC(=O)O[C@H](C)C(C)C)C(C)(C)C)C(=O)C(=O)NCC(=O)N[C@H](C(=O)N(C)C)c1ccccc1 (stereo partly shown) (X20-[Tle][Pro(4,4-Me2)][X2]G[Phg]-NMe2) | 1 to 100 nM |

Same assay, conditions: Table 5; HCV NS3/NS4A protease, 30° C., pH 6.5; read-out: Ki* Range

| Ki | Structure (SMILES) |
| --- | --- |
| 1 to 100 nM | C#CCNC(=O)C(=O)C(CCC=C)NC(=O)[C@@H]1[C@@H]2[C@H](CN1C(=O)[C@@H](NC(=O)NC13CC4CC(CC(C4)C1)C3)C1CCCCC1)C2(C)C (stereo partly shown) |
| 101 to 1000 nM | C=CCNC(=O)C(=O)C(CCC)NC(=O)[C@@H]1[C@H]2[C@@H](CN1C(=O)[C@@H](NC(=O)NC(C)C)C1CCCC1)C2(C)C (stereo partly shown) |
| 101 to 1000 nM | C=CCCC(NC(=O)[C@@H]1[C@@H]2[C@H](CN1C(=O)C(NC(=O)OC(C)(C)C)C1CCCCC1)C2(Cl)Cl)C(=O)C(=O)NCC=C (stereo partly shown) |
| 1 to 100 nM | CCCC(NC(=O)[C@@H]1[C@H]2[C@@H](CN1C(=O)[C@@H](NC(=O)NC(C)(C)C)C(C)(C)C)C2(Cl)Cl)C(=O)C(=O)NCC(=O)NCc1ccccc1 (stereo partly shown) |
| 1 to 100 nM | C=CCCC(NC(=O)[C@@H]1C2C(CN1C(=O)[C@@H](NC(=O)OC(C)(C)C)C1CCCCC1)C2(Cl)Cl)C(=O)C(=O)NCCC(=O)OC(C)(C)C (stereo partly shown) |
| 1 to 100 nM | C=CCCNC(=O)C(=O)C(CCC=C)NC(=O)[C@@H]1[C@@H]2[C@H](CN1C(=O)[C@@H](NC(=O)NC(C)(C)C)C1Cc3ccccc3C1)C2(C)C (stereo partly shown) |
| 1 to 100 nM | C=CCCC(NC(=O)[C@@H]1[C@H]2[C@@H](CN1C(=O)[C@@H](NC(=O)NC(C)(C)C)C1CCCCC1)C2(C)C)C(=O)C(=O)NCCS(=O)(=O)C(C)(C)C (stereo partly shown) |

Same assay, conditions: Table 5; HCV NS3/NS4A protease, spectrophotometric assay, 30° C., pH 6.5; read-out: Ki* Range

| Ki | Structure (SMILES) |
| --- | --- |
| 1 to 100 nM | C=CCCC(NC(=O)[C@@H]1[C@@H]2[C@H](CN1C(=O)[C@@H](NC(=O)NC(C)(C)CC(C)(C)C)C1CCCCC1)C2(C)C)C(=O)C(=O)NCC=C (stereo partly shown) |
| > 1000 nM | CC(C)(C)NC(=O)N[C@H](C(=O)N1C[C@H]2[C@@H]([C@H]1C(=O)NC(CC(F)(F)F)C(=O)C(N)=O)C2(C)C)C(C)(C)C (stereo partly shown) |
